Two compounds from USRE32311E can be followed below.

Values after ≈ are worked out from the molar mass of the structure shown.

This experiment has as its system Staphylococcus aureus S13E. Format: cell-based. To be noted: agar dilution. For orientation: Agar dilution tests growth on a series of plates holding different concentrations.

Regarding `CCCCCCCCCCC(=O)N[C@@H](Cc1ccccc1)C(=O)NCCC[C@@H]1NC(=O)CNC(=O)[C@@H](NC(=O)[C@H](CC(=O)O)NC(=O)[C@@H](CC(N)=O)NC(=O)[C@@H](N)Cc2c[nH]c3ccccc23)[C@@H](C)OC(=O)[C@H](CC(=O)c2ccccc2N)NC(=O)[C@H]([C@H](C)CC(=O)O)NC(=O)[C@@H](CO)NC(=O)CNC(=O)[C@H](CC(=O)O)NC(=O)[C@@H](C)NC(=O)[C@H](CC(=O)O)NC1=O` [Compound 26], the MIC (usually the lowest concentration that inhibits growth of the organism) was 16 µg/mL (≈ 8.98 µM).

With `CCC(C)CCCCCCC(=O)N[C@@H](Cc1c[nH]c2ccccc12)C(=O)N[C@@H](CC(N)=O)C(=O)N[C@@H](CC(=O)O)C(=O)N[C@@H]1C(=O)NCC(=O)N[C@@H](CCCNC(=O)CCC(=O)O)C(=O)N[C@@H](CC(=O)O)C(=O)N[C@H](C)C(=O)N[C@@H](CC(=O)O)C(=O)NCC(=O)N[C@H](CO)C(=O)N[C@@H]([C@H](C)CC(=O)O)C(=O)N[C@@H](CC(=O)c2ccccc2N)C(=O)O[C@@H]1C` (some centres unmarked) [Compound 15], the minimal inhibitory concentration (MIC) was 2 µg/mL (≈ 1.15 µM). This MIC lies about 8-fold lower than the previous one.
